From the supplement of paper PMC12217912
The list shows a part of the results. The full chains were built here from the parent and the listed change. Values near 0.05 are background.

B1: TEV protease; numbered along this chain (parent)
chain: MGESLFKGPRDYNPISSSICHLTNESDGHTTSLYGIGFGPFIITNKHLFRRNNGTLVVQSLHGVFKVKDTTTLQQHLVDGRDMIIIRMPKDFPPFPQKLKFREPQREERICLVTTNFQTKSMSSMVSDTSCTFPSGDGIFWKHWIQTKDGQCGSPLVSTRDGFIVGIHSASNFTNTNNYFTSVPKNFMELLTNQEAQQWVSGWRLNADSVLWGGHKVFMVKPEEPFQPVKEATQL

Variants of: B1
Assay: raw area under fraction-flipped curve 0-4 h after induction (AUC4h, not background-subtracted), DNA-recorder readout of cleavage of the substrate (dimensionless); higher = more cleavage of the substrate by the protease variant
Details: temperature: 34 °C; time window: 0-4 h after rhamnose induction
Description: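 In vivo DNA recorder in E. coli TOP10(DE3) ΔrhaA at 34 °C. Each TEVp single-site mutant (parent TEVp 0) is paired with a single-site variant of the 7-mer TEVs (canonical ENLYFQ|S). The substrate sits between flexible linkers in a Bxb1-sfGFP-TEVs-SsrA fusion, so cleavage stabilises Bxb1 and speeds flipping of a recombination array, read by NGS. The value is the raw area under the fraction-flipped curve over 0-4 h after rhamnose induction (AUC4h), with ≥20 reads per time point. It is not background-subtracted; inactive controls average about 0.047.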
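Also: Bxb1 expression induced with 0.2% (w/v) L-rhamnose at OD600 near 0.5, cultures sampled hourly, flipped fraction per protease–substrate barcode pair counted by paired-end Illumina sequencing.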

Variant: MGESLFKGPRDYNPISSSICHLTNESDGHTTSLYGIGFGPFIITNKHLFRRNNGTLVVQSLHGVFKVKDTTTLQQHLVDGRDMIIIRMPKDFPPFPQKLKFREPQREERICLVTTNFQTKSMSSMVSDTSCTFPSGDGIFWKHWIQTKDGQCGSPLVSTRDGFIVGIHSASNFTNTNNYFTSVPKNFMELLTNQEAQQWRSGWRLNADSVLWGGHKVFMVKPEEPFQPVKEATQL [V200R]
- area with substrate ENLYFQC: 0.064
- area with substrate ENLYFQD: 0.0607
- area with substrate ENLYFQG: 0.0742
- area with substrate ENLYFQH: 0.0583
- area with substrate ENLYFQK: 0.0495
- area with substrate ENLYFQS: 0.0823
- area with substrate ENLYFQT: 0.0667

Variant: MGESLFKGPRDYNPISSSICHLTNESDGHTTSLYGIGFGPFIITNKHLFRRNNGTLVVQSLHGVFKVKDTTTLQQHLVDGRDMIIIRMPKDFPPFPQKLKFREPQREERICLVTTNFQTKSMSSMVSDTSCTFPSGDGIFWKHWIQTKDGQCGSPLVSTRDGFIVGIHSASNFTNTNNYFTSVPKNFMELLTNQEAQQWVSGWRLNADSVFWGGHKVFMVKPEEPFQPVKEATQL [L211F]
- area with substrate ENLYFQC: 0.134
- area with substrate ENLYFQD: 0.0597
- area with substrate ENLYFQH: 0.0794
- area with substrate ENLYFQI: 0.0725
- area with substrate ENLYFQK: 0.0674
- area with substrate ENLYFQL: 0.064
- area with substrate ENLYFQM: 0.0811
- area with substrate ENLYFQN: 0.035
- area with substrate ENLYFQR: 0.109
- area with substrate ENLYFQS: 0.102
- area with substrate ENLYFQT: 0.0741
- area with substrate ENLYFQV: 0.0628
- area with substrate ENLYFQY: 0.0796

Variant: MGESLFKGPRDYNPISSSICHLTNESDGHTTSLYGIGFGPFIITNKHLFRRNNGTLVVQSLHGVFKVKDTTTLQQHLVDGRDMIIIRMPKDFPPFPQKLKFREPQREERICLVTTNFQTKSMSSMVSDTSCTFPSGDGIFWKHWIQTKDGQCGSPLVSTRDGFIVGIHSASNFTNTNNYFTSVPKNFMELLTWQEAQQWVSGWRLNADSVLWGGHKVFMVKPEEPFQPVKEATQL [N193W]
- area with substrate ENLYFQC: 0.0843
- area with substrate ENLYFQG: 0.0627
- area with substrate ENLYFQH: 0.0629
- area with substrate ENLYFQI: 0.052
- area with substrate ENLYFQL: 0.0626
- area with substrate ENLYFQQ: 0.0689
- area with substrate ENLYFQR: 0.0433
- area with substrate ENLYFQS: 0.0755
- area with substrate ENLYFQT: 0.0574

Variant: MGESLFKGPRDYNPISSSICHLTNESDGHTTSLYGIGFGPFIITNKHLFRRNNGTLVVQSLHGVFKVKDTTTLQQHLVDGRDMIIIRMPKDFPPFPQKLKFREPQREERICLVTTNFQTKSMSSMVSDTSCTFPSGDGIFWKHWIQTKDGQCGSPLVSTRDGFIVGIHSASNFTNTNNYFTSVPKNFMELLTNQEAQQWVSGWRLNLDSVLWGGHKVFMVKPEEPFQPVKEATQL [A207L]
- area with substrate ENLYFQC: 0.112
- area with substrate ENLYFQD: 0.0736
- area with substrate ENLYFQF: 0.0728
- area with substrate ENLYFQG: 0.0697
- area with substrate ENLYFQH: 0.0813
- area with substrate ENLYFQI: 0.0689
- area with substrate ENLYFQN: 0.0604
- area with substrate ENLYFQP: 0.0583
- area with substrate ENLYFQR: 0.0731
- area with substrate ENLYFQS: 0.0877

Variant: MGESLFKGPRDYNPISSSICHLTNESDGHTTSLYGIGFGPFIITNKHLFRRNNGTLVVQSLHGVFKVKDTTTLQQHLVDGRDMIIIRMPKDFPPFPQKLKFREPQREERICLVTTNFQTKSMSSMVSDTSCTFPSGDGIFWKHWIQTKDGQCGSPLVSTRDGFIVGIHSASNFTNTNNYFTSVPKNFMELLTNQEAQQWVSGWRLNADLVLWGGHKVFMVKPEEPFQPVKEATQL [S209L]
- area with substrate ENLYFQC: 0.11
- area with substrate ENLYFQG: 0.0906
- area with substrate ENLYFQH: 0.0789
- area with substrate ENLYFQK: 0.0552
- area with substrate ENLYFQN: 0.0856
- area with substrate ENLYFQP: 0.0557
- area with substrate ENLYFQR: 0.0642
- area with substrate ENLYFQS: 0.0913

Variant: MGESLFKGPRDYNPISSSICHLTNESDGHTTSLYGIGFGPFIITNKHLFRRNNGTLVVQSLHGVFKVKDTTTLQQHLVDGRDMIIIRMPKDFPPFPQKLKFREPQREERICLVTTNFQTKSMSSMVSDTSCTFPSGDGIFWKHWIQTKDGQCGSPLVSTRDGFIVGIHSASNFTNTNNYFTSVPKNFMELLTNQEAQQMVSGWRLNADSVLWGGHKVFMVKPEEPFQPVKEATQL [W199M]
- area with substrate ENLYFQC: 0.0775
- area with substrate ENLYFQD: 0.0635
- area with substrate ENLYFQG: 0.0545
- area with substrate ENLYFQH: 0.0668
- area with substrate ENLYFQI: 0.0428
- area with substrate ENLYFQK: 0.0609
- area with substrate ENLYFQL: 0.0606
- area with substrate ENLYFQM: 0.0494
- area with substrate ENLYFQN: 0.0693
- area with substrate ENLYFQP: 0.0577
- area with substrate ENLYFQS: 0.0685
- area with substrate ENLYFQT: 0.0391
- area with substrate ENLYFQW: 0.0607
- area with substrate ENLYFQY: 0.0535

Variant: MGESLFKGPRDYNPISSSICHLTNESDGHTTSLYGIGFGPFIITNKHLFRRNNGTLVVQSLHGVFKVKDTTTLQQHLVDGRDMIIIRMPKDFPPFPQKLKFREPQREERICLVTTNFQTKSMSSMVSDTSCTFPSGDGIFWKHWIQTKDGQCGSPLVSTRDGFIVGIHSASNFTNTNNYFTSVPKNFMELLTNQEAQQWVSGWRLNADSVLWGGHWVFMVKPEEPFQPVKEATQL [K216W]
- area with substrate ENLYFQC: 0.0901
- area with substrate ENLYFQD: 0.0546
- area with substrate ENLYFQF: 0.0633
- area with substrate ENLYFQH: 0.046
- area with substrate ENLYFQK: 0.0548
- area with substrate ENLYFQL: 0.0555
- area with substrate ENLYFQN: 0.0594
- area with substrate ENLYFQP: 0.0553
- area with substrate ENLYFQR: 0.0589
- area with substrate ENLYFQS: 0.0835

Variant: MGESLFKGPRDYNPISSSICHLTNESDGHTTSLYGIGFGPFIITNKHLFRRNNGTLVVQSLHGVFKVKDTTTLQQHLVDGRDMIIIRMPKDFPPFPQKLKFREPQREERICLVTTNFQTKSMSSMVSDTSCTFPSGDGIFWKHWIQTKDGQCGSPLVSTRDGFIVGIHSASNFTNTNNYFTSVPKNFMELLTNQEAQQWVSGWRLNADSVLWGGHKGFMVKPEEPFQPVKEATQL [V217G]
- area with substrate ENLYFQC: 0.0531
- area with substrate ENLYFQH: 0.0532
- area with substrate ENLYFQK: 0.0624
- area with substrate ENLYFQM: 0.0522
- area with substrate ENLYFQR: 0.0537
- area with substrate ENLYFQS: 0.0683
- area with substrate ENLYFQY: 0.0509

Variant: MGESLFKGPRDYNPISSSICHLTNESDGHTTSLYGIGFGPFIITNKHLFRRNNGTLVVQSLHGVFKVKDTTTLQQHLVDGRDMIIIRMPKDFPPFPQKLKFREPQREERICLVTTNFQTKSMSSMVSDTSCTFPSGDGIFWKHWIQTKDGQCGSPLVSTRDGFIVGIHSASNFTNTNNYFTSVPKNFMELLTNQEAQQWVSGWRANADSVLWGGHKVFMVKPEEPFQPVKEATQL [L205A]
- area with substrate ENLYFQC: 0.0803
- area with substrate ENLYFQH: 0.062
- area with substrate ENLYFQI: 0.0614
- area with substrate ENLYFQK: 0.0747
- area with substrate ENLYFQL: 0.0466
- area with substrate ENLYFQN: 0.0547
- area with substrate ENLYFQS: 0.0856
- area with substrate ENLYFQT: 0.0674
- area with substrate ENLYFQV: 0.0837
- area with substrate ENLYFQW: 0.0682

Variant: MGESLFKGPRDYNPISSSICHLTNESDGHTTSLYGIGFGPFIITNKHLFRRNNGTLVVQSLHGVFKVKDTTTLQQHLVDGRDMIIIRMPKDFPPFPQKLKFREPQREERICLVTTNFQTKSMSSMVSDTSCTFPSGDGIFWKHWIQTKDGQCGSPLVSTRDGFIVGIHSASNFTNTNNYFTSVPKNFMELLTNQEAQQWVSGWRDNADSVLWGGHKVFMVKPEEPFQPVKEATQL [L205D]
- area with substrate ENLYFQC: 0.114
- area with substrate ENLYFQK: 0.03
- area with substrate ENLYFQM: 0.056
- area with substrate ENLYFQP: 0.0537
- area with substrate ENLYFQS: 0.0794
- area with substrate ENLYFQY: 0.0528
